From PubChem BioAssay AID485344 (National Center for Advancing Translational Sciences (NCATS), 2010) come the findings set out here.

Screen size: about 340,000 compounds; about 6,900 (2%) were called active. Cut-off read from the data, not from the text of the source: active = inhibition above about 30%; inactive = below that, where a call was filed. This is a selection; strong and weak results do not stand in their true shares. The source gives no active or inactive call for entries shown without one.

UniProt P14416, sequence (P14416 whole entry, looked up): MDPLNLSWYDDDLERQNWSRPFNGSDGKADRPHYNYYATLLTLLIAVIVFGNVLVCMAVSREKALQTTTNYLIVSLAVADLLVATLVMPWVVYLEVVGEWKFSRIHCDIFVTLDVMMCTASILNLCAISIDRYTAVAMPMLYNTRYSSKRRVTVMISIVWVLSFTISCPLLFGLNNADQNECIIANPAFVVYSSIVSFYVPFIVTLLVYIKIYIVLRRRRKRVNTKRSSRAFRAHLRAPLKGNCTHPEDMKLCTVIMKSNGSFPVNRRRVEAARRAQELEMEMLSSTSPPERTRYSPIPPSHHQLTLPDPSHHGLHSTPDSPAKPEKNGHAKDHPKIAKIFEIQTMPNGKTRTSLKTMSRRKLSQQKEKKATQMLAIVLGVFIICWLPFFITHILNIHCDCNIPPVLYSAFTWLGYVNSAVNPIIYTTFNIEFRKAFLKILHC

In the assay the target is D(2) dopamine receptor (Homo sapiens) (UniProt P14416). The assay is described as follows: HTS Assay for Allosteric Antagonists of the Human D2 Dopamine Receptor: Primary Screen for Antagonists. Note: 0% is about no effect. To be noted: HEK293 TREx D2 cells, calcium flux, dopamine EC80; at 10 µM; stronger effect = higher value. In outline:
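Cells plated overnight at 30 C with tetracycline; no-wash calcium dye, 30–90 min RT; 10 s baseline; compound pinned; 180 s read; EC80 dopamine added; another 180 s read.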
On the technique in general: Calcium assays in cells follow changes in intracellular calcium, usually with a dye or a luminescent sensor.
As for `COc1ccc(NC(=O)CCn2nc(-c3ccc(Cl)cc3)c3ccccc3c2=O)cc1`, the inhibition is -0.116%.

Take `O=C(Nc1nnc(N2CCCC2)s1)Nc1cc(F)ccc1F`: the inhibition amounted to 13.9%.

For the compound `Cc1ccc(CSc2nc(N)cc(=O)[nH]2)cc1`, the inhibition is active: 30.1%.

With `O=C(NCCc1ccccc1)c1c2c(nc3ccccc13)C(=O)N(C1CCCCC1)C2`, the inhibition was found to be 12.9%.

Regarding `Cc1oc(-c2cccc(Cl)c2)nc1CN1CCC(C(=O)NCc2ccc(F)cc2)CC1`, the inhibition is -6.08%.

Regarding `COc1cccc(CNC(=O)C2CCCN(S(=O)(=O)c3ccc4c(ccn4C)c3)C2)c1OC` (stereo unspecified), the inhibition was -9.17%.

On to `CCC(=O)N1c2ccc(S(=O)(=O)CCC(=O)NCCC3=CCCCC3)cc2CC1C` (stereo unspecified), for which the inhibition is active: 30.9%.

In the case of `Cc1cc(C(=O)Nc2cccc(C(F)(F)F)c2)c2c(C)nn(-c3cccc(F)c3)c2n1`, the inhibition stood at 6.57%.

`Cc1nn2c3c(cnc2c1-c1ccc(F)cc1)C(=O)CC(c1ccccc1)C3` (stereo unspecified): the inhibition was -2.04%.

For the compound `O=C(Cn1c(=O)n(CCCS(=O)(=O)C2CCCCC2)c(=O)c2ccccc21)Nc1ccccc1F`, the inhibition was -10.3%.

For `CC(=O)Nc1ccc(NC(=O)CC(C)n2ccc(C)n2)cc1` (stereo unspecified), the inhibition was 6.69%.

Consider `CC(CCc1ccccc1)NCC(O)c1cccc([N+](=O)[O-])c1` (stereo unspecified), for which the inhibition is active: 58.8%.

For the compound `O=S(=O)(NCCc1csc2nc(-c3ccc(F)cc3)nn12)c1ccc2c(c1)OCCO2`, the inhibition is -5.25%.

`Cc1cc(C)c(-c2csc(-c3cc4ccccc4oc3=O)n2)cc1C`: the inhibition amounted to 3.24%.

For `Cc1ccc(OCC(=O)N(Cc2ccc(N(C)C)cc2)CC2CCCO2)cc1C` (stereo unspecified), the inhibition is 7.28%.

As for `CCOc1ccc(CNCCN2CCCC2)cc1`, the inhibition was active: 74.1%.

In the case of `O=C(c1cccc([N+](=O)[O-])c1)N1c2nc(-c3ccco3)nn2C2(CCCCC2)[C@@H]2CCCC[C@@H]21`, the inhibition came out at 5.89%.

With `COc1ccc(-c2cc(C(F)(F)F)nc(SCC(=O)N3CCCCC3)n2)cc1`, the inhibition was 16.3%.

In the case of `CCCC(=O)c1cc2c(cc1NC(=O)c1ccccc1F)OCCO2`, the inhibition is -17.5%.

On to `Cc1ccc(CNC(=O)CCCn2c(=O)c3ccccc3n(Cc3ccccc3Cl)c2=O)cc1`, for which the inhibition is 2.56%.

Take `CCCCOc1ccc(NC(=O)c2cc3c(n(-c4ccc(Cl)cc4)c2=O)CCCC3=O)cc1`: the inhibition came to 3.93%.

With `COC(=O)[C@@H]1C[C@@H]2CC[C@@H](O)C[C@@H]2N1Cc1ccc(OC)cc1`, the inhibition was active: 39.2%.

With `Cc1nn(C)c2c1c(-c1ccccc1)cc(=O)n2Cc1ccc(Br)cc1F`, the inhibition was determined as 21.8%.

As for `COC(=O)c1ccc(NC(=O)CC2C(=O)N(c3cccc(C)c3)C(=O)N2Cc2ccco2)cc1` (stereo unspecified), the inhibition is -7.02%.

Consider `Cc1cccc(N2C(=O)C(CC(=O)Nc3ccccc3)N(C3CCCCC3)C2=O)c1` (stereo unspecified), for which the inhibition is 1.74%.

Turning to `COc1cccc(C2/C(=C(\O)c3ccc4c(c3)OCO4)C(=O)C(=O)N2CCN(C)C)c1OC` (stereo unspecified), the inhibition is active: 41%.

On to `COc1cccc(C(=O)Nc2nc3nc(C)c(Cc4ccccc4)c(=O)n3[nH]2)c1`, for which the inhibition was 0.76%.

For `CCOC(=O)c1c(C)[nH]c(C)c1S(=O)(=O)N(C)CC(=O)N1CCN(c2cccc(C)c2C)CC1`, the inhibition was -1.54%.

Consider `Cc1ccc(C)c(N2CCN(C(=O)CCc3c(C)nn(-c4ccc(N5CCCC5)nn4)c3C)CC2)c1`, for which the inhibition was -2.92%.

On to `Cc1ccc(C(=O)Nc2c(C)nc3ccccn3c2=O)cc1`, for which the inhibition is -1.31%.

In the case of `COc1ccccc1CNC(=O)CSc1nc2nc(C)c(Cc3ccccc3C)c(C)n2n1`, the inhibition was determined as 5.91%.

Take `O=C(NCc1ccc(Cl)cc1)C1CCN(C(=O)c2cnn(-c3ccccc3)c2-n2cccc2)CC1`: the inhibition is -10.8%.

`O=C(CCCCCn1c(=O)[nH]c2ccsc2c1=O)NCc1ccccc1`: the inhibition turned out to be 5.24%.

On to `CCOc1ccc(CNC(=O)Cn2nc(N3CCN(c4ccccc4)CC3)ccc2=O)cc1`, for which the inhibition worked out at 1.05%.

`Oc1c(C(c2cccc(Br)c2)N2CCCC2)sc2nc(-c3ccco3)nn12` (stereo unspecified): the inhibition is 19%.

Take `CC1CN(C(=O)CCC(=O)NCCCN2CCN(Cc3ccccc3)CC2)c2cc(Cl)ccc2O1` (stereo unspecified): the inhibition was active: 37.1%.

Consider `CC(=O)CCc1ccc(OCC(O)CNCCOc2ccc(C)cc2)cc1` (stereo unspecified), for which the inhibition was active: 61%.

On to `CCCS(=O)(=O)c1c(S(=O)(=O)CCC)c2cc(C(C)(C)C)ccn2c1C(=O)c1ccc(C)cc1`, for which the inhibition was -10.1%.

As for `COc1ccc(Nc2nnc(-c3cc4cc(Cl)ccc4oc3=O)s2)cc1`, the inhibition is 5.64%.

Regarding `CCC(C)NC(=O)c1ccc(Cn2c(=O)c3cccn3c3cccnc32)cc1` (stereo unspecified), the inhibition is 3.38%.

In the case of `COc1cccc(CN2C(=O)c3ccccc3C2C(=O)NCCc2ccccc2)c1` (stereo unspecified), the inhibition was 12%.

Regarding `CN(C)S(=O)(=O)c1ccc(NC(=O)CN2CCN(c3ccccn3)CC2)cc1`, the inhibition is active: 30.2%.

In the case of `CC(C)c1ccc(NC(=O)C2CCCN(S(=O)(=O)c3ccc4[nH]c(=O)oc4c3)C2)cc1` (stereo unspecified), the inhibition was 14.5%.

Turning to `CCc1ccccc1NC(=O)c1nc2nc(C)cc(C(F)F)n2n1`, the inhibition came to 0.91%.

Consider `CCN(CC)S(=O)(=O)c1ccc2c(c1)c(=O)c(C(=O)N1CCN(c3ccc(OC)cc3)CC1)cn2C`, for which the inhibition was -7.39%.

As to `COCCCn1c(=O)c2sccc2n(Cc2cccc(C)c2)c1=O`, the inhibition is active: 41.1%.

In the case of `Cc1ccc(CNC(=O)CN2N=C(c3ccc(C)cc3)CCC2=O)cc1`, the inhibition stood at 9.78%.

Turning to `CCCN(CCC)CCCNC(=O)Cn1ncn2c(cc3sc(CC)cc32)c1=O`, the inhibition was -22.9%.

Consider `Cn1c(-c2cccc(Br)c2)cnc1NCc1cccc(F)c1`, for which the inhibition stood at 6.36%.

For `Cc1cc(C(N)=O)c2ccccc2n1`, the inhibition is active: 49.8%.

With `Cc1cccc(-c2nnc(SCC(=O)Nc3ccc(C)c(C)c3)o2)c1`, the inhibition stood at 5.78%.

Take `Cc1ccc(/C=C/c2onc(C)c2S(=O)(=O)N2CCC(C(=O)Nc3cccc(C#N)c3)CC2)cc1`: the inhibition was -10.3%.

Regarding `CCN(CC)CCNC(=O)CN1C(=O)CSc2ccc(S(=O)(=O)N3CCOCC3)cc21`, the inhibition worked out at 11.9%.

For the compound `CCOC(=O)COc1ccc(CC)cc1C(=O)c1ccn2nc(-c3ccc(C)cc3)cc2n1`, the inhibition is -28.4%.

`Cc1ccccc1CSc1nc2c([nH]c3ccccc32)c(=O)n1-c1ccccc1`: the inhibition was -1.88%.

Regarding `CCc1nnc2c(NCc3ccccc3)nc3ccccc3n12`, the inhibition is -4.13%.

For the compound `CCOc1ccc(-c2cc(NC(=O)Nc3ccccc3Cl)c(C(=O)OC)s2)cc1`, the inhibition was found to be 3.24%.

For the compound `OC(COc1c(F)cc(Br)cc1F)CN1CCc2ccccc2C1` (stereo unspecified), the inhibition was active: 64.8%.

With `Cc1ccc(C(=O)N2CCN(c3ccccc3)CC2)cc1NC(=O)c1nsc2ccccc12`, the inhibition is -26.5%.

As for `N#Cc1c(C(F)(F)F)cc(-c2cccs2)nc1SCC(=O)Nc1cccc(Br)c1`, the inhibition is -0.241%.

As for `Cc1ccc(-c2nnc(Nc3ccc(F)cc3)c3ccccc23)cc1S(=O)(=O)NC(C)C`, the inhibition was -3.16%.

What is called inhibition is the drop in the measured response relative to a control, in per cent.
